# Source: PubChem BioAssay (Tox21)
# Inconclusive means that the source gave no clear call. Such entries were picked first, then a sample of the others. For some assays here: Where the call is inconclusive, the potency comes from a doubtful curve fit. Where a structure was tested more than once in an assay, its records may differ in their call. The source made the active and inactive calls. Unless noted, the call rests on the fitted dose curve; in most records, active means well fitted curve in the direction sought with a large enough effect in the repeat runs; inconclusive means weak or mixed curves; inactive means no such curve, though single readings can be large; an effect the other way counts as inactive or inconclusive.
# Assays:
# [1] = qHTS assay to identify small molecule agonists of the estrogen related receptor (ERR) signaling pathway from Tox21 library (AID 1224849; calls by dose curve; further: on the % scale 0 is the no-effect control and ±100 the full control effect; nearly all actives have a fitted effect of over 15% in size); details: ERR reporter cell line, ONE-Glo luciferase, 18 h; at 92.4 µM (top of the series)
# Method in brief: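 Luciferase activity in ERR pathway reporter cells served as the agonist readout; exposure lasted 18 h at 37 C, with ONE-Glo detection after 30 min at room temperature.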
# [2] = A CellTox Green Cytotoxicity Assay to monitor cytotoxicity in HEK293 cells - 40 hour (AID 1224871); details: CellTox Green fluorescence; series mostly up to 76.8 µM; further: nearly all actives have a fitted effect of over 45% in size; further: potency means the concentration at half of the fitted maximal effect
# Method in brief: (§1)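 Real-time, in one plate: 600 HEK293 cells/well with dead-cell DNA dye, pinned compound after 5 h, 37 C incubation over 40 h; viable cells give no appreciable fluorescence.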
# [3] = qHTS RealTime-Glo MT Cell Viability Assay in HepG2 cells - 24 hour (AID 1224867); details: RealTime-Glo luminescence; series mostly up to 76.8 µM; further: nearly all actives have a fitted effect of over 50% in size; further: potency means the concentration at half of the fitted maximal effect
# Method in brief: (§2)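 Cell number in HepG2 cultures estimated from NanoLuc luminescence generated by metabolic reduction of a prosubstrate by living cells. The homogeneous, nonlytic format allowed repeated reads at 0, 8, 16, 24, 32 and 40 h of compound exposure.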
# [4] = A CellTox Green Cytotoxicity Assay to monitor cytotoxicity in HepG2 cells - 16 hour (AID 1224876); details: CellTox Green fluorescence; series mostly up to 76.8 µM; further: nearly all actives have a fitted effect of over 45% in size; further: potency means the concentration at half of the fitted maximal effect
# Method in brief: (§3)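 Cytotoxicity was tracked as dead-cell DNA fluorescence in HepG2 cells treated with test compounds at 37 C; each time-point value comes from one kinetic series spanning 0, 8, 16, 24, 32 and 40 h.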
# [5] = qHTS RealTime-Glo MT Cell Viability Assay in HepG2 cells - 32 hour (AID 1224877); details: RealTime-Glo luminescence; series mostly up to 76.8 µM; further: potency means the concentration at half of the fitted maximal effect; nearly all actives have a fitted effect of over 55% in size
# Method in brief: as §2
# [6] = A CellTox Green Cytotoxicity Assay to monitor cytotoxicity in HepG2 cells - 24 hour (AID 1224878); details: CellTox Green fluorescence; series mostly up to 76.8 µM; further: potency means the concentration at half of the fitted maximal effect; nearly all actives have a fitted effect of over 45% in size
# Method in brief: as §3
# [7] = A CellTox Green Cytotoxicity Assay to monitor cytotoxicity in HepG2 cells - 40 hour (AID 1224879); details: CellTox Green fluorescence; series mostly up to 76.8 µM; further: potency means the concentration at half of the fitted maximal effect; nearly all actives have a fitted effect of over 40% in size
# Method in brief: as §3
# [8] = qHTS RealTime-Glo MT Cell Viability Assay in HEK293 cells - 32 hour (AID 1224868); details: RealTime-Glo luminescence; series mostly up to 76.8 µM; further: nearly all actives have a fitted effect of over 50% in size; further: potency means the concentration at half of the fitted maximal effect
# Method in brief: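 Homogeneous bioluminescent viability format in HEK293 cells (600 cells/well). Following 5 h at 37 C/5% CO2, 23 nL compound was pintooled; the signal was measured repeatedly during 40 h incubation.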
# [9] = qHTS RealTime-Glo MT Cell Viability Assay in HEK293 cells - 40 hour (AID 1224874); details: RealTime-Glo luminescence; max response: active compounds read low; further: potency means the concentration at half of the fitted maximal effect; nearly all actives have a fitted effect of over 50% in size
# Method in brief: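 Kinetic, non-lysing viability readout. Seed HEK293 (600/well) with reagent, incubate 5 h at 37 C/5% CO2, pin 23 nL compound in DMSO, incubate at 37 C, read luminescence at 0, 8, 16, 24, 32, 40 h.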
# [10] = A CellTox Green Cytotoxicity Assay to monitor cytotoxicity in HEK293 cells - 32 hour (AID 1224881); details: CellTox Green fluorescence; series mostly up to 76.8 µM; further: potency means the concentration at half of the fitted maximal effect; nearly all actives have a fitted effect of over 40% in size
# Method in brief: as §1
# Tags describe the fitted curve by direction and shape.
smiles,measurement,setting,value
O=C(O)C1CCC(C(=O)O)CC1 (configuration not stated),"activity change, positive = activation",[1],inconclusive: 12.9%
same,Potency,[2],inactive
[Na+],Potency,[3],"inconclusive: 61.6 µM [falling, partial curve, poor fit]"
same,Potency,[4],"inconclusive: 43.6 µM [activator, partial curve, poor fit]"
same,Potency,[5],active: 49 µM
same,Potency,[6],"inconclusive: 49 µM [activator, single point]"
same,Potency,[7],"inconclusive: 49 µM [activator, partial curve, poor fit]"
O=C(CCCCCCCCC#CI)Oc1ccccc1,Potency,[3],active: 6.01 µM
same,Potency,[8],"inconclusive: 6.74 µM [cytotoxic, full curve]"
same,Potency,[5],active: 4.77 µM
COC(=O)CCS,Potency,[8],inactive
OCCN1CCNCC1,Potency,[3],inactive
same,Potency,[8],"inconclusive: 17.2 µM [rising, partial curve]"
same,Potency,[2],"inconclusive: 61.1 µM [activator, single point]"
same,Potency,[9],"inconclusive: 61.1 µM [cytotoxic, single point]"
same,Potency,[4],inactive
same,Potency,[10],"inconclusive: 61.1 µM [activator, single point]"
